Data published in US7244430 (CRUCELL HOLLAND B V, dated 2007).

Target: T1, recombinantly expressed purified soluble WNV E protein (strain 382-99) (West Nile virus strain 382-99, UniProt Q9Q6P4 291-696)
T1 construct: also called recombinant WNV-E protein; truncated E protein; not shown: Myc tag and His tag
T1 sequence: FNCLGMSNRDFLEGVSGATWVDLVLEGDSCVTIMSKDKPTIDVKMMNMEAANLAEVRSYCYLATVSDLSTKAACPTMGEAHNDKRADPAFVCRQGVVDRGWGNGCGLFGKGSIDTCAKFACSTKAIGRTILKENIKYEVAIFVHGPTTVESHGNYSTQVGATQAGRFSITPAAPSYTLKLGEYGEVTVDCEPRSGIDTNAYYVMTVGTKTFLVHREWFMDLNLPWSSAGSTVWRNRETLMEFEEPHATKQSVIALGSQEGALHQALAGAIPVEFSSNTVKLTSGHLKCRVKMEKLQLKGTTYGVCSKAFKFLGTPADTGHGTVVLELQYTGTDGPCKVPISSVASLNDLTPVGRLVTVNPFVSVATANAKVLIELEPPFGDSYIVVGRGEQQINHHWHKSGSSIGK
Assay: phage ELISA, coated recombinant soluble WNV E protein

B1: SC04-274 (scFv)
scFv: QVQLVQSGAEVKKPGESLKISCKGSGYSFTSYWIGWVRQMPGKGLEWMGIIYPGDSDTRYSPSFQGQVTISADRSISTAYLQWSSLKASDTAMYYCARLRGPYYDFWNGYRETHDAFNVWGQGTTVTVSSGTGGSGGTGSGTGGS[skipping about 100 residues]FGGGTKVEIKR
  OD 492 nm: 0.496 OD 492 nm
